# Measurements reported in the supplement of paper PMC3334620.
# Whole data set: some 33,000 sequences, median “E-score (-0.5 to 0.5)” near -0.043, cut for the highest 2% near 0.37. The list shows a part of the results.
# Target: T1, Upc2 (UniProt Q12151)
# T1 sequence: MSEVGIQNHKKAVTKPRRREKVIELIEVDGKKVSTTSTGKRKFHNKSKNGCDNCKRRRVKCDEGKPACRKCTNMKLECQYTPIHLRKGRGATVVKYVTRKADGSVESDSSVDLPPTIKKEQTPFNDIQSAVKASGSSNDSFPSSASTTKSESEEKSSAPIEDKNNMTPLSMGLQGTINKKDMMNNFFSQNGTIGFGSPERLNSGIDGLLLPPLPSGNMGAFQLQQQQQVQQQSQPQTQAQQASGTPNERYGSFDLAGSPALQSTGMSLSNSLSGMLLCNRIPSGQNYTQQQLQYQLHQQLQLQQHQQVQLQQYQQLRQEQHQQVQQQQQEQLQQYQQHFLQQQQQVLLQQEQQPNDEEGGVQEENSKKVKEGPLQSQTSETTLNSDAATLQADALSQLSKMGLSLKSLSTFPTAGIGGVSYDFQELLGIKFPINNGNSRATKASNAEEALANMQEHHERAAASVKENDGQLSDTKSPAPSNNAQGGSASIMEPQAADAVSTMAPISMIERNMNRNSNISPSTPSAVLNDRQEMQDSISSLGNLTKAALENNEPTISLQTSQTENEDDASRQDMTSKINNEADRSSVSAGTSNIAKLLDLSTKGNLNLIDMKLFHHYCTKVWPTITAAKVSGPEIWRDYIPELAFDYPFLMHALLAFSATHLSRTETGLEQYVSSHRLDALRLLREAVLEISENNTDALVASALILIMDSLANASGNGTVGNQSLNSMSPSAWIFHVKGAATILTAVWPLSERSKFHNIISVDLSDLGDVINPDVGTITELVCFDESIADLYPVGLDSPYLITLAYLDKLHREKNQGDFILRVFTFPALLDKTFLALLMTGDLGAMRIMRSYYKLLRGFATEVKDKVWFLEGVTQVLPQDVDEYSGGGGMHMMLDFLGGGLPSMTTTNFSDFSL
# Experiment: PBM E-score (8-mer binding enrichment) (E-score (-0.5 to 0.5)); higher = stronger / more preferred TF binding; most listed sequences are background and not binding sites
# Details: protein concentration: 200 nM; construct: GST-full length
# How it was run: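 For each ungapped eight-base word taken together with its reverse complement, the Universal PBM Analysis Suite assigned an E-score. Binding data came from GST-tagged yeast transcription factors, applied at about 100-200 nM, on universal all-10-mer Agilent arrays made double-stranded by primer extension. Fluorescent anti-GST marked bound protein, and scans were normalised with masliner.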
row,Sequence,PBM E-score
1,ATGTTGAC,-0.0223
2,GAGTCTAC,0.00323
3,CAGGGGGA,-0.377
4,GCTTCCCA,0.094
5,CTATCAAC,0.0734
6,TTAATGAA,0.0861
7,CTATGCTA,-0.168
8,ATATCGAT,0.052
9,AAAGCTTC,-0.0314
10,ATAAATTA,0.312
11,GTTGACGA,-0.031
12,CACCATAC,0.132
13,ACCAGTCA,-0.194
14,CAGTGCAA,-0.00228
15,GTTTCTAA,0.206
16,CAAATTTG,0.0684
17,TACACCCA,0.0255
18,GGCGTTTA,0.378
19,GTTTACTA,0.224
20,AAGTTAAC,0.204
21,CGTATGTC,0.353
22,ACTATCTC,0.0406

row,Sequence,PBM E-score
1,CCAATCCC,-0.13
2,CAACTCTC,-0.179
3,CCACTCTC,-0.106
4,CCGACCAA,0.091
5,GGGCAGCA,-0.226
6,AGGCTCGA,-0.00658
7,AGCCCATC,0.0339
8,ACGACACT,0.337
9,ACAGTCGC,0.0291
10,ACGAGTGG,0.295
11,AGTGATTG,-0.222
12,CCGGTGGA,0.0139
13,ATTCTAGA,-0.142
14,ACGTCGTA,0.458
15,GCAAGACA,-0.136
16,GTTAATAA,0.0665
17,CTGTCGAC,-0.0395
18,CCACGGCG,-0.0352
19,TGGCCCAA,-0.151
20,CCAGGTCG,0.0394
21,AAGGTAGG,-0.138
22,CGATCATA,0.0929

row,Sequence,PBM E-score
1,GAGGAAAA,0.0211
2,AACGGTCT,0.146
3,AAACACTG,-0.0296
4,CAGGTCAA,-0.178
5,GGACGCCC,-0.129
6,TGGTGAAA,-0.0343
7,CAGGCAAG,-0.298
8,CTGCAGCA,-0.0875
9,CGCCGCCC,-0.0467
10,CTTCAGTA,-0.0281
11,TAAAACCA,0.0273
12,ACGCGCTA,0.251
13,ATCTGCGC,-0.106
14,GCATGCAA,0.165
15,GGTCAGGA,-0.205
16,GGATAGCA,0.147
17,CTTCCTAC,-0.272
18,CTGTTAGA,-0.122
19,GGGTCTAC,-0.107
20,CACGGATC,-0.00462
21,ACCTAAAT,0.0691
22,CTAACTTA,-0.03

row,Sequence,PBM E-score
1,GAACCAGC,-0.164
2,ATAGTGTG,-0.129
3,GCACCTGC,-0.26
4,GTGAGTGA,-0.107
5,ACCCTAAC,0.053
6,AATGATAG,0.137
7,ATCGTTTG,0.452
8,GCCAAAGC,-0.223
9,GACTACAC,0.121
10,ATCGCAGA,-0.0673
11,ACTAAGCG,0.283
12,CACGGCAA,0.0197
13,CACAGGGC,-0.161
14,AACATCAG,-0.0349
15,TACGGAAA,0.269
16,CGTGCCCA,0.00732
17,AAATGGTC,-0.0155
18,TACCGACA,0.133
19,ATCTCAGC,-0.0791
20,AAAGCCAT,0.048
